In article PMC4336329 (PLoS ONE, 2015):
Among all 310,000 compounds or so, about 14,000 (4.5%) showed an effect of 50% or more. The effect is printed as a negative number. The list shows a part of the results.

Molecular target: human ether-à-go-go-related gene (hERG) potassium channel (human, UniProt Q12809)
Assay: primary screen, population patch clamp on CHO cells stably expressing hERG
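Further: peak tail current of the secondary pulse compared with the same well before compound.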

Sequence of human ether-à-go-go-related gene (hERG) potassium channel (Q12809 whole entry, looked up): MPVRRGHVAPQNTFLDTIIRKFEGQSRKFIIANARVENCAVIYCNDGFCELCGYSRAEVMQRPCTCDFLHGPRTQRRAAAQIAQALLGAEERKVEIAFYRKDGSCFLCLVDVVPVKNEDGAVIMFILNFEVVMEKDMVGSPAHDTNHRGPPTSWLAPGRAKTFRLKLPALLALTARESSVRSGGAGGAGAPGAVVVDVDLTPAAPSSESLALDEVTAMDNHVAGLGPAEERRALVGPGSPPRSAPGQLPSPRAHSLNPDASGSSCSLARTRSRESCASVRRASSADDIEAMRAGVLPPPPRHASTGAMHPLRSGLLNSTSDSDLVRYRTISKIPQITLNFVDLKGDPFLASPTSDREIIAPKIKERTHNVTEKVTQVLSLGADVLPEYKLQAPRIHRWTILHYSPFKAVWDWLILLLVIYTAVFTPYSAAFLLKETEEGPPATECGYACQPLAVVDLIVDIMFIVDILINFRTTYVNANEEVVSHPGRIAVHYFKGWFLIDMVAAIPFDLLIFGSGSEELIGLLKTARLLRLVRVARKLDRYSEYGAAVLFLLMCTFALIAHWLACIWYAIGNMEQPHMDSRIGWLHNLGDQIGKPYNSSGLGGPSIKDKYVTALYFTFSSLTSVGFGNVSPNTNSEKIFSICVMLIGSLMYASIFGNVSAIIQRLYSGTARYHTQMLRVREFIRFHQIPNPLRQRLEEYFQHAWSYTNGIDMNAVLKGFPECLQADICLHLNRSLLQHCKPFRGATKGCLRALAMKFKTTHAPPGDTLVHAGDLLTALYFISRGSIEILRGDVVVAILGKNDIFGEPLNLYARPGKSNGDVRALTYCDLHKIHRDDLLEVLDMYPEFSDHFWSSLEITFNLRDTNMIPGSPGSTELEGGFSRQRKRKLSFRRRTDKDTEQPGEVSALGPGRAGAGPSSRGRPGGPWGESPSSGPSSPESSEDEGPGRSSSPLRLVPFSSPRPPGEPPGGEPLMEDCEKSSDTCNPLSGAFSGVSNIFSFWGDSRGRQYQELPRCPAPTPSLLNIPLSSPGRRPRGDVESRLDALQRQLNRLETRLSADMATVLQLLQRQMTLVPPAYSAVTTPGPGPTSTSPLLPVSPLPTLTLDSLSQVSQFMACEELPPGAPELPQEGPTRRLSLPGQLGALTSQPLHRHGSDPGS

SMILES | hERG current change (%, negative = inhibition) at 10uM [%]
O=C(Nc1nccs1)c1csc2c1CCCC2 | 1.05
COc1ccc(NC(=O)Cn2nnc(C(=O)Nc3ccc(F)c(Cl)c3)c2N)cc1OC | 13.2
CCOC(=O)/C=C/c1ccccc1S(=O)(=O)NC(C)(C)C | -23.1
Cc1ccc(S(=O)(=O)N2CCN(C(=O)CCOc3cc(C)ccc3C)CC2)cc1 | -32.8
CCCSc1nnc(N2C(=O)CC(c3ccsc3)C3=C2CCCC3=O)s1 (stereo not drawn) | -6.45
Cc1nc2ccccn2c1C(=O)NN=C1CCCC1 | -10.4
Cc1cccc(N2CCN(C(=O)CS(=O)(=O)Cc3nc(-c4ccccc4F)oc3C)CC2C)c1 (stereo not drawn) | -21.4
Cn1c(=O)[nH]c(=O)c2c1nc(OC(=O)c1ccccc1)n2CC(O)COc1ccccc1 (stereo not drawn) | 23.2
COC(=O)CNC(=O)C1Cc2ccccc2CN1S(=O)(=O)c1ccc(F)cc1 (stereo not drawn) | 8.38
O=C(COC(=O)C1CCC1)NCCc1ccc(Cl)cc1Cl | 16.1
CCOc1ccc(S(=O)(=O)N2CCCC(C(=O)NC3CCCC3)C2)cc1 (stereo not drawn) | 4.57
COc1cccc(OCc2cc(C(=O)N(Cc3nccn3C)C(C)C)no2)c1 | 8.5
CCN(CC)c1ccc(/C=C/[N+](=O)[O-])cc1 | -10.4
O=C(c1cc2ccccc2o1)N1CCN(S(=O)(=O)c2c(F)cccc2F)CC1 | -2.27
CC(C)(C)c1nc(NCc2ccc3c(c2)OCO3)c2nnn(Cc3ccccc3Cl)c2n1.Cl | 16.4
Cc1cccc(NC(=O)CCN2CCN(C)CC2)c1.Cl | 6.48
CC1CCN(C(=O)CSc2nc3ccccc3c(=O)[nH]2)CC1 | 0.905
O=C(NC1CCCN(C2Cc3ccccc3C2)C1)c1ccc(F)cc1Cl (stereo not drawn) | -71.1
NC(=O)c1nn(CC(=O)Nc2cccc(S(=O)(=O)N3CCCCCC3)c2)c(=O)c2ccccc12 | -32.9
CC(C)Sc1nc2ccccc2n1CC(=O)O | 9.86
Cc1ccc(NC(=O)c2cc([N+](=O)[O-])ccc2N2CCCC2)cc1 | -0.291
CC(C)[C@H](NC(=O)c1ccccc1F)C(=O)Nc1ccc2c(c1)OCO2 | 5.82
O=C(c1cccc(COc2ccc(Cl)cc2Cl)c1)N1CCN(c2ccccn2)CC1 | -3.19

SMILES | hERG current change (%, negative = inhibition) at 10uM [%]
CCCCN(C)C(=O)c1c[nH]c2ccc(S(=O)(=O)N3CCOCC3)cc2c1=O | 16.9
O=C(NCc1ccc(F)cc1)c1cc2sccc2n1Cc1ccc(F)cc1 | 20.9
C/C(=N/NC(=O)c1ccc(O)cc1)c1cccc([N+](=O)[O-])c1 | 4.27
COC(=O)c1ccc(-c2ccc(/C=N/N3C(=O)C4C5C=CC(CC5)C4C3=O)o2)cc1 (stereo not drawn) | -16.1
CCCCNC(=O)C(CC)(ONc1ccccc1C(F)(F)F)c1ccccc1 (stereo not drawn) | 6.19
Cn1cnnc1SCNC(=O)C(F)(F)F | 9.54
Cc1cc(C)c(NC(=O)Cn2c(=O)n(-c3ccc(CC(=O)NCC4CCCO4)cc3)c(=O)c3ccccc32)c(C)c1 (stereo not drawn) | 5.67
CC(C)[C@@H]1NC(=O)c2cc([N+](=O)[O-])cc(I)c2NCCC[C@@H](C(N)=O)NC(=O)[C@H](CO)NC1=O | -0.897
CCn1c(=N)n(CC(=O)c2cccc(OC)c2)c2ccccc21 | -16.6
CCOc1ccccc1CN1CCN(Cc2csc(C(C)=O)c2)CC1CCO (stereo not drawn) | -44.5
CCN(CC)S(=O)(=O)c1cccc(C(=O)NCC2CCCO2)c1 (stereo not drawn) | -1.94
CCCCNC(=O)C(=O)c1ccccc1NC(C)=O | 2.85
COc1ccc(C2CC(c3ccccc3)=NN2c2ccc(/C=N/NC(=O)c3ccncc3)cc2)cc1 (stereo not drawn) | -0.834
CCCNC(=O)NC(=O)CN1C(=O)NC(C)(c2ccc(C)cc2)C1=O (stereo not drawn) | -7.72
COc1cc(OC)cc(N2C(=O)CSCC2=O)c1 | 9.07
COc1cccc(OP(=O)(Nc2ccccc2)Oc2cccc(OC)c2)c1 | 5.62
CCOc1cc(C(=O)NC(C)CC)cc(OCC)c1OCC (stereo not drawn) | 13.1
Cc1ccc(CNC(=O)/C=C/C(=O)O)cc1 | -15.4
O=C(NC1CCSc2ccccc21)c1ccc([N+](=O)[O-])cc1 (stereo not drawn) | -40.3
CCOC(=O)C1=NNC2C(=O)N(C3CCCCC3)C(=O)C12 (stereo not drawn) | 1.58
O=C(c1ccccc1)N1N=C(c2cccs2)CC1c1ccccc1O (stereo not drawn) | 5.86
CCCN1CCN(C(=O)C2CCCN(c3ncnc4c3nc3n4CCCCC3)C2)CC1 (stereo not drawn) | -1.04
Cc1cc(=O)oc2cc(NC(=O)COc3cccc(C(F)(F)F)c3)ccc12 | -2.39

SMILES | hERG current change (%, negative = inhibition) at 10uM [%]
O=C(NCC(c1cccnc1)N1CCOCC1)c1cccc(Cl)c1 (stereo not drawn) | -6.87
CN=C1S/C(=C\c2ccc(N3CCCC3)c(F)c2)C(=O)N1C | -3.1
COc1ccc(N2CCN(C(=O)C(C)(C)Oc3ccc(Cl)cc3)CC2)cc1 | 1.92
CC(=O)NC(c1ccc2ccccc2c1)c1ccc2cccnc2c1O (stereo not drawn) | 12.4
COc1ccccc1C(=O)Nc1c(C)n(C)n(-c2ccccc2)c1=O | 4.23
CC1Cn2c(nnc2C23CC4CC(CC(C4)C2)C3)S1 (stereo not drawn) | -4.2
O=C1CC2(CCCC2)Oc2ccc(Cl)cc21 | 8.19
NC(=O)c1cc(Br)cc2c3c([nH]c12)CCCC3 | 14
c1cc2c(cc1C1=Nn3c(nnc3C3CCCCC3)SC1)OCO2 | -0.78
COc1ccc(CC(C)N2CCN(c3cccc(C(F)(F)F)c3)CC2)cc1OC (stereo not drawn) | -65.9
CC(C)=CCN1CCN(Cc2cccc3c2OCO3)CC1CCO (stereo not drawn) | -12.6
OC(CN1CCCCC1)CN1CCCCC1 | 16
CCCN1CCN(C(=O)Nc2ccc(C(=O)OCC)cc2)CC1 | -2.52
CC(C)(C)n1nnnc1C(c1cccs1)N(Cc1ccccc1)Cc1ccco1 (stereo not drawn) | 4.66
O=S(=O)(c1ccc(NC(=S)NCc2ccncc2)cc1)N1CCCCC1 | -2.67
CC(C)=CC(=O)Nc1nnc(-c2ccc(F)cc2)s1 | -8.2
CCN(Cc1ccccc1)S(=O)(=O)c1ccc(C(=O)N(CCCN(C)C)c2nc3cc(C)cc(C)c3s2)cc1.Cl | -4.15
Cc1ccc(Nc2ncc3c(n2)CC(c2ccco2)CC3=O)c(C)c1 (stereo not drawn) | -31.2
CC12CN3CCN(CC(C3)/C1=N/NC(N)=O)C2 | 12.1
NC(=O)c1ccccc1Nc1nc(NCCO)nc(N2CCCC2)n1 | 14.7
COC(=O)c1ccc(C(=O)OC)c(NC(=O)CCS(=O)(=O)Cc2ccccc2)c1 | -2.41
O=C1C2C(C(=O)N1CC1CCCO1)C1C=CC2C12CC2 (stereo not drawn) | -0.683
CCc1ccc2oc(C(=O)Nc3ccc(S(N)(=O)=O)cc3)c(C)c2c1 | 29.4

SMILES | hERG current change (%, negative = inhibition) at 10uM [%]
C=CCNC(=S)NNC(=O)c1cc(O)ccc1O | 13.6
O=C(CC12CC3CC(CC(C3)C1)C2)Nc1c(F)cccc1F | 14.5
CCCc1cc(=O)[nH]c(SCC(=O)NC)n1 | -6.09
Cl.NCCN1C(=O)S/C(=C\c2ccc3c(c2)OCO3)C1=O | -5.03
Cc1cccc(NC(=O)CC2SC(=NC3CCCCC3)NC2=O)c1 (stereo not drawn) | 2.19
Cl.OC(COCc1ccccc1)CN1CCCC1 (stereo not drawn) | -6.03
CCc1nnc(NC(=O)CSc2nnc(-c3cccnc3)n2CC)s1 | 10.2
CCOC(=O)N1CCN(S(=O)(=O)c2cccc3nonc23)CC1 | -10.8
Cc1ccc(S(=O)(=O)N2CCN(C(=O)CSc3nnnn3C)CC2)c(C)c1 | 23.6
COc1cccc(-c2nn(-c3ccc(C)cc3)cc2C(=O)N2CCN(C3CCS(=O)(=O)C3)CC2)c1 (stereo not drawn) | -57
CC(CNC(=O)COc1ccc2c(c1)OCO2)c1ccccc1 (stereo not drawn) | -17.6
CC1Oc2ccccc2N(Cc2cccnc2)C1=O (stereo not drawn) | 2.12
CC(=O)c1ccccc1OCc1ccc(C(=O)c2ccccc2)cc1 | -51.7
CCOC(=O)c1c(C)[nH]c(C(=O)COC(=O)CNC(=O)c2ccc(Cl)cc2)c1C | 17.6
O=C(NC1CC1)c1sc2cc(F)ccc2c1Cl | -5.28
OCc1c(OCc2cccc(F)c2)ccc2ccccc12 | 10.7
COc1cc(/C=C/C(=O)Nc2nnc(CC(C)(C)C)s2)cc(OC)c1OC | 16.9
O=C1c2ccccc2C(=O)N1CCCC(=O)N1CCc2ccccc21 | 2.76
CCO[C@H]1OC(C(=O)Nc2ccccc2)=C[C@@H](C2CC2)[C@@H]1CCCO | 1.16
O=S(=O)(NC1CC1)c1ccc(F)c(F)c1 | 7.21
CC1(C)CC(=O)C(/C=N/n2c(C(F)(F)F)nc3ccccc3c2=O)=C(O)C1 | -7
